Article PMC4336329 (PLoS ONE, 2015)
The whole screen tested about 310,000 compounds, of which about 2,200 (0.71%) showed an effect of 50% or more. Effects have a minus sign here. The list shows a part of the results.

These compounds were tested against human ether-à-go-go-related gene (hERG) potassium channel (human, UniProt Q12809) (assay: primary screen, population patch clamp on CHO cells stably expressing hERG).
Sequence of human ether-à-go-go-related gene (hERG) potassium channel (Q12809 whole entry, looked up): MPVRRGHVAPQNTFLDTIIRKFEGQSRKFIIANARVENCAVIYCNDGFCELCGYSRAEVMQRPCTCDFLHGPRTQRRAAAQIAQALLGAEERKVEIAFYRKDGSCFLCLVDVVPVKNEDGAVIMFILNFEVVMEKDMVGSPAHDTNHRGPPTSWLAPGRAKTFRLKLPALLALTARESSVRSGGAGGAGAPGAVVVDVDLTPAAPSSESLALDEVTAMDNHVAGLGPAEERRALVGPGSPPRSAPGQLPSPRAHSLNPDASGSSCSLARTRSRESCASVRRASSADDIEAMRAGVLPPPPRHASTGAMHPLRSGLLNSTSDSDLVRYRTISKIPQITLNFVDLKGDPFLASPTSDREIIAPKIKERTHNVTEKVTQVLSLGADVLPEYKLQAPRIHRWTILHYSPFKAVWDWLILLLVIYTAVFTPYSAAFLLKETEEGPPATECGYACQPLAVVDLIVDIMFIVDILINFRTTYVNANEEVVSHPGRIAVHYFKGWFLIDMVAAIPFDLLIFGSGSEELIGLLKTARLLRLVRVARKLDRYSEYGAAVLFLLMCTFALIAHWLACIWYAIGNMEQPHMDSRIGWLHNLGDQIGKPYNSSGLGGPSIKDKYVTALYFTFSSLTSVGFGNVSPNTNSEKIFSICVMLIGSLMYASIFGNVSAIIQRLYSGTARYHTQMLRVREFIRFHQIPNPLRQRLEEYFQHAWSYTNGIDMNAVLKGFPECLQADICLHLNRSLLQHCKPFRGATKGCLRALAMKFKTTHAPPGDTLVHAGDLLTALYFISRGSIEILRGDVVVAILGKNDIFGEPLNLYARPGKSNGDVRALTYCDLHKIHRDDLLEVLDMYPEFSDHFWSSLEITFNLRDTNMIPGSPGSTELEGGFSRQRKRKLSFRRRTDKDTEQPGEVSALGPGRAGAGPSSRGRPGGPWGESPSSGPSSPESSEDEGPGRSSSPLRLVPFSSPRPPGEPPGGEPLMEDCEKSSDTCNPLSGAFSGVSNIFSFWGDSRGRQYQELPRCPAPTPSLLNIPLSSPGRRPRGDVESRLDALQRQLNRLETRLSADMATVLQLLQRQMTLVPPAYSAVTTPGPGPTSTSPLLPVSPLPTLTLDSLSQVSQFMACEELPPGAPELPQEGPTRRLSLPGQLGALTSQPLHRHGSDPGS

How did the “hERG current change (%, negative = inhibition) at 1uM” value turn out when `CC(=O)Nc1ccc(-c2csc(Nc3ncccn3)n2)cc1` was run?
Its value is -3.78%.

With `CCCCc1ccc(NC(=O)CSc2nc(=O)n(CCN(C)C)c3c2CCC3)cc1` as the compound, how does the “hERG current change (%, negative = inhibition) at 1uM” value read?
Its value is 0.557%.

With `Cc1ccc(NC(=O)c2cc(NC(=O)C3CC=CCC3C(=O)O)ccc2N2CCOCC2)cc1` (stereo not shown) as the compound, how does the “hERG current change (%, negative = inhibition) at 1uM” value read?
The value was 8.51%.

Which “hERG current change (%, negative = inhibition) at 1uM” value does the source give for `CSc1nc(NC(C)(C)C)nc(Oc2ccc(=O)n(C)n2)n1` here?
Its value is -2.14%.

Which “hERG current change (%, negative = inhibition) at 1uM” value does the source give for `CCOC(=O)C1CCCN(S(=O)(=O)c2cnc(Cl)c(Br)c2)C1` (stereo not shown) here?
The value was 12%.

`CC1CCCC(C)N1C(=O)COC(=O)c1cc([N+](=O)[O-])ccc1N1CCOCC1` (stereo not shown) was tested. Which “hERG current change (%, negative = inhibition) at 1uM” value did it give?
The value was 8.73%.

Which “hERG current change (%, negative = inhibition) at 1uM” value does the source give for `CC(C)CNC(=S)N(CCCN(C)C)Cc1cc2cc3c(cc2[nH]c1=O)OCCO3` here?
The value was 16.7%.

Which “hERG current change (%, negative = inhibition) at 1uM” value does the source give for `O=C(NCCSCc1c(F)cccc1Cl)Nc1ccccc1` here?
The value was 10.6%.

`Fc1cccc(NC(=S)N2CCCC2)c1` was tested. Which “hERG current change (%, negative = inhibition) at 1uM” value did it give?
The value was 6.95%.

For `COc1ccc(CC(NC(C)=O)C(=O)NC2CCN(S(=O)(=O)c3ccccc3)CC2)c(OC)c1` (stereo not shown), which “hERG current change (%, negative = inhibition) at 1uM” value is on record?
The value was 14%.

With `O=C(c1ccc(N2C(=O)C3CCCCC3C2=O)cc1)N1CCCCC1` (stereo not shown) as the compound, how does the “hERG current change (%, negative = inhibition) at 1uM” value read?
The value was 2.72%.

How did the “hERG current change (%, negative = inhibition) at 1uM” value turn out when `O=C(CCCC(=O)N(CC(=O)NC1CCCCC1)Cc1ccc2c(c1)OCO2)Nc1ccccn1` was run?
The value was -9.09%.

For `COc1cc(C)ccc1OCC(=O)Nc1ccc2c(c1)OCO2`, which “hERG current change (%, negative = inhibition) at 1uM” value is on record?
Its value is 13.1%.

How did the “hERG current change (%, negative = inhibition) at 1uM” value turn out when `O=C(CSc1nc2ncc(Br)cc2[nH]1)Nc1ccccc1-c1ccccc1` was run?
The value was 23.4%.

For `Cc1nnc(N/N=C/c2cccc(C(F)(F)F)c2)n1N`, which “hERG current change (%, negative = inhibition) at 1uM” value is on record?
Its value is 10.6%.

With `CCCCOc1ccc(CNC(=O)NS(=O)(=O)c2ccc(OCC)cc2)cc1` as the compound, how does the “hERG current change (%, negative = inhibition) at 1uM” value read?
The value was 13.4%.

Which “hERG current change (%, negative = inhibition) at 1uM” value does the source give for `CC(NC(=O)/C=C/c1ccccc1[N+](=O)[O-])C1CC2CCC1C2` (stereo not shown) here?
Its value is 11.1%.

Which “hERG current change (%, negative = inhibition) at 1uM” value does the source give for `CCOC(=O)C1C(c2ccc(C(=O)O)cc2)NC(=O)NC1(O)C(F)(F)F` (stereo not shown) here?
The value was 6.09%.

With `COc1ccc(O)c(C(=O)c2cc(C#N)c(=O)n(CC3CCCO3)c2)c1` (stereo not shown) as the compound, how does the “hERG current change (%, negative = inhibition) at 1uM” value read?
The value was 4.67%.

Which “hERG current change (%, negative = inhibition) at 1uM” value does the source give for `CC(C)Cn1c(N)c(C(=O)COC(=O)c2ccccc2F)c(=O)n(C)c1=O` here?
The value was 6%.

For `CC(C)c1ccc(NC(=O)Cn2c(=O)oc3ccccc32)cc1`, which “hERG current change (%, negative = inhibition) at 1uM” value is on record?
Its value is 16.6%.

Which “hERG current change (%, negative = inhibition) at 1uM” value does the source give for `CN(C(=O)COC(=O)c1cc(NS(=O)(=O)c2cc([N+](=O)[O-])ccc2Cl)ccc1O)C1CCCCC1` here?
Its value is -1.26%.

How did the “hERG current change (%, negative = inhibition) at 1uM” value turn out when `COc1ccc(C(=O)N/C(=C\c2ccco2)C(=O)NCCN2CCOCC2)cc1` was run?
Its value is 14.8%.

Which “hERG current change (%, negative = inhibition) at 1uM” value does the source give for `COC(=O)c1ccc(C2=NOC(C)(c3nnc(Cc4ccccc4)o3)C2)cc1` (stereo not shown) here?
Its value is 13.6%.

For `O=C(Nc1cc2c3c(c1)CC(=O)N3CCC2)c1ccccc1F`, which “hERG current change (%, negative = inhibition) at 1uM” value is on record?
The value was 13%.

Which “hERG current change (%, negative = inhibition) at 1uM” value does the source give for `Cc1ccc(C)c(-n2c3nc(=O)[nH]c(=O)c-3cc3cc([N+](=O)[O-])ccc32)c1` here?
Its value is 12%.

For `CC(NC(=O)OC(C)(C)C)C(=O)Oc1cc2oc(=O)cc(-c3ccccc3)c2cc1Cl` (stereo not shown), which “hERG current change (%, negative = inhibition) at 1uM” value is on record?
The value was 13.2%.

With `Cc1ccc(Sc2nc(C)cc(C)c2S(C)(=O)=O)cc1` as the compound, how does the “hERG current change (%, negative = inhibition) at 1uM” value read?
Its value is 8.74%.

With `Nc1ccc(C(=O)OCC(=O)NC2CCCc3ccccc32)cc1[N+](=O)[O-]` (stereo not shown) as the compound, how does the “hERG current change (%, negative = inhibition) at 1uM” value read?
The value was 14.8%.

With `CN1CCN(S(=O)(=O)c2ccc3c(c2)CC(=O)N3C)CC1` as the compound, how does the “hERG current change (%, negative = inhibition) at 1uM” value read?
The value was 5.59%.

For `O=C1CCc2cc(S(=O)(=O)N3CCCCC3)cc3c2N1CC3`, which “hERG current change (%, negative = inhibition) at 1uM” value is on record?
Its value is 10.1%.

For `Cc1ccc(C)c(OCCn2cc(C(=O)O)c3ccccc32)c1`, which “hERG current change (%, negative = inhibition) at 1uM” value is on record?
Its value is 9.49%.

How did the “hERG current change (%, negative = inhibition) at 1uM” value turn out when `Cc1cccc(OCCC(=O)NCC(=O)Nc2c(C)cccc2C)c1` was run?
The value was 9.32%.

Which “hERG current change (%, negative = inhibition) at 1uM” value does the source give for `COCCn1nnnc1C(c1cc2c(C)cc(C)cc2[nH]c1=O)N1CCCCCC1` (stereo not shown) here?
Its value is 10.2%.

`O=C(Nc1ccccc1N1CCOCC1)c1cccnc1` was tested. Which “hERG current change (%, negative = inhibition) at 1uM” value did it give?
The value was 11.2%.

For `O=c1cc(-c2cccs2)oc2ccc(Cl)cc12`, which “hERG current change (%, negative = inhibition) at 1uM” value is on record?
Its value is 7.79%.

`CCN1CCN(Cc2ccc(NC(=O)c3cc(NC(=O)c4cc(-c5ccc(OC)cc5)n[nH]4)cc(OC)c3)cc2C(F)(F)F)CC1` was tested. Which “hERG current change (%, negative = inhibition) at 1uM” value did it give?
Its value is 10.4%.

`Oc1c(C(c2cccs2)N2CCN(c3ccc(F)cc3)CC2)sc2ncnn12` (stereo not shown) was tested. Which “hERG current change (%, negative = inhibition) at 1uM” value did it give?
Its value is -30%.

`COc1ccc(C(=O)CSc2nnc(CNC(=O)c3ccccc3F)n2C)cc1OC` was tested. Which “hERG current change (%, negative = inhibition) at 1uM” value did it give?
The value was 18.2%.

How did the “hERG current change (%, negative = inhibition) at 1uM” value turn out when `Cc1ccc(S(=O)(=O)N(C)c2c(C)ccc(S(=O)(=O)N3CCN(C)CC3)c2C)cc1` was run?
The value was -7.59%.

Which “hERG current change (%, negative = inhibition) at 1uM” value does the source give for `COc1ccc(C(=O)OCC[N+]2(C)CCOCC2)cc1.[I-]` here?
Its value is 16.2%.

For `COc1cccc(C2N(c3ccccn3)C(=O)C3CCCN32)c1OC` (stereo not shown), which “hERG current change (%, negative = inhibition) at 1uM” value is on record?
The value was 10%.

With `O=[N+]([O-])c1cc(Cl)c2cccnc2c1O` as the compound, how does the “hERG current change (%, negative = inhibition) at 1uM” value read?
Its value is 12.3%.

With `CCOc1ccc(N2CC(C(=O)Nc3ccccc3C(=O)NC3CC3)CC2=O)cc1` (stereo not shown) as the compound, how does the “hERG current change (%, negative = inhibition) at 1uM” value read?
Its value is -26.7%.

How did the “hERG current change (%, negative = inhibition) at 1uM” value turn out when `N#CCCN(C(=O)COC(=O)c1ccc(CNS(=O)(=O)c2ccc(F)c(Cl)c2)cc1)c1ccc(F)cc1` was run?
Its value is 7.19%.

`C=CCn1c(NCCc2ccccc2)nc2c1c(=O)n(C)c(=O)n2C` was tested. Which “hERG current change (%, negative = inhibition) at 1uM” value did it give?
Its value is 4.06%.

For `O=C(Cc1cccs1)Nc1cc(SCCO)cc([N+](=O)[O-])c1`, which “hERG current change (%, negative = inhibition) at 1uM” value is on record?
The value was 1.98%.

For `Cc1ccc(COC(=O)c2cccc(S(=O)(=O)N3CCCCCC3)c2)cc1`, which “hERG current change (%, negative = inhibition) at 1uM” value is on record?
Its value is -3.44%.

For `CCn1nnnc1SCC(=O)c1cc(Cl)ccc1OC`, which “hERG current change (%, negative = inhibition) at 1uM” value is on record?
The value was 0.289%.

How did the “hERG current change (%, negative = inhibition) at 1uM” value turn out when `COc1cccc(-c2ccc(-c3noc(-c4cccs4)n3)c(OC)n2)c1` was run?
Its value is 5.01%.

Which “hERG current change (%, negative = inhibition) at 1uM” value does the source give for `C/C(=C\C(=O)c1ccc(F)cc1)NCc1ccc2c(c1)OCO2` here?
Its value is 11.6%.

Which “hERG current change (%, negative = inhibition) at 1uM” value does the source give for `C=C(C)[C@@H]1C2C(=O)O[C@H]1[C@H]1OC(=O)[C@@]34OC3C[C@]2(O)[C@@]14C` (stereo partly shown) here?
The value was 12.2%.

For `O=C1c2ccccc2C(=O)N1CCSc1nnc(-c2ccco2)n1Cc1ccccc1`, which “hERG current change (%, negative = inhibition) at 1uM” value is on record?
Its value is -51.1%.

With `CCOC(=O)c1c(SCc2ccccc2)n[nH]c1N` as the compound, how does the “hERG current change (%, negative = inhibition) at 1uM” value read?
Its value is 15.7%.

For `CC(=O)N1CCCc2cc(S(=O)(=O)N3CCC(C)CC3)ccc21`, which “hERG current change (%, negative = inhibition) at 1uM” value is on record?
The value was -5.53%.
